Here are results for 45 sequences from the supplement of paper PMC11417369.

± gives the standard deviation of the averaged measurements. The list shows a part of the results.

The subject of the test is PfAP2-I AP2 domain 3 (GST-tagged). Nature of the test: gcPBM binding intensity (ln(normalized median fluorescence intensity)); higher = stronger DNA binding. A digest of the protocol: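 The binding buffer was 1× PBS containing 1% milk, 0.2 mg/ml BSA, 0.5% salmon testes DNA and 0.03% Triton X-100. In it, GST-tagged P. falciparum DNA-binding domains expressed in E. coli were applied for 1 h to an Agilent 4 × 180k array of primer-extended double-stranded 36-bp intergenic genomic probes plus negative controls. Binding intensity, read with Alexa488 anti-GST antibody and a 488 nm scan, is the highest Masliner-normalised natural-log median intensity across replicate spots of either probe orientation.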
Take “TATAACAAGTTATAAAGTACAAATGTTGAATTTTAT [XGTACX_site4673]”: the “gcPBM binding intensity (ln)” value stood at 7.49 ± 0.59.

In the case of “TCGGGAGGGGGGAAGCGTACATATATAAAATTATTA [XGTACX_site4683]”, the “gcPBM binding intensity (ln)” value is 10.6 ± 0.53.

Regarding “TAAAAATTAATATAAACACACAAAAATTAATAAATA [CACACA_site381]”, the “gcPBM binding intensity (ln)” value came to 7.61 ± 0.63.

For “TATAGATACAGATACACACACACACCGACATATATA [CACACA_site5832]”, the “gcPBM binding intensity (ln)” value worked out at 7.74 ± 0.38.

On to “GAATGTATATTCATGTATTTATTATTATTATTATTA [XGTACX_negctrl_site156]”, for which the “gcPBM binding intensity (ln)” value was 7.83 ± 0.61.

Consider “ACTACTCCATTAAGTAGTACACAAAAAAAAAAAATA [XGTACX_site7031]”, for which the “gcPBM binding intensity (ln)” value came to 7.92 ± 0.28.

With “TTACAAATGTTTTACACACACATAATTGTATCAATT [CACACA_site6147]”, the “gcPBM binding intensity (ln)” value was 7.86 ± 0.4.

As to “TAATAAAACATATATACACACATTATAAATACATAT [CACACA_site5014]”, the “gcPBM binding intensity (ln)” value turned out to be 7.72 ± 0.63.

“TATAAATAAAAACACACACACATATATATATATATA [CACACA_site2319]”: the “gcPBM binding intensity (ln)” value came out at 9.45 ± 0.52.

For the sequence “CCATTTTAAATATGCACACAGATGCACTAACCCATT [CACACA_site1883]”, the “gcPBM binding intensity (ln)” value was found to be 10.345 ± 0.007.

Consider “TAAAAAATAAAAAAAGCACACACATATATATATATA [CACACA_site8567]”, for which the “gcPBM binding intensity (ln)” value worked out at 9.4 ± 0.25.

On to “AAAATAAGAAATTGAAAAATTGAAAACAAAATTAAA [CACACA_negctrl_site1285]”, for which the “gcPBM binding intensity (ln)” value was determined as 7.37 ± 0.61.

Consider “TACATGATATATCACACACACATATAAATATATATA [CACACA_site2831]”, for which the “gcPBM binding intensity (ln)” value worked out at 7.92 ± 0.71.

Take “TTCACAAAATATTATTGTACATTAAAATATTTATAT [XGTACX_site2535]”: the “gcPBM binding intensity (ln)” value came out at 7.63 ± 0.42.

As to “TATAAAACGGATGAACAACAAATCATATGGCACAAA [TGCATGCA_negctrl_site608]”, the “gcPBM binding intensity (ln)” value came out at 10.2 ± 0.18.

Turning to “GAAAATTTCTTATTTTGTACACACAATAAATATTCA [XGTACX_site3267]”, the “gcPBM binding intensity (ln)” value is 7.71 ± 0.49.

“GTTTTTTTATTTCATCGTACAAAAAAGAAGGCTTTA [XGTACX_site5291]”: the “gcPBM binding intensity (ln)” value turned out to be 7.86 ± 0.49.

Take “TTATATATTTATTTATGTACATATTTTTTTATTATA [XGTACX_site6115]”: the “gcPBM binding intensity (ln)” value came to 7.96 ± 0.26.

On to “TAAATATGTATTCATACATGCACATATATATATATA [TGCATGCA_site584]”, for which the “gcPBM binding intensity (ln)” value was found to be 9.53 ± 0.33.

For “ATATCCTTAAAAGATACACACATATGAATATTTTGT [CACACA_site3847]”, the “gcPBM binding intensity (ln)” value was determined as 7.61 ± 0.42.

For “TTTATACTTGTAAATGCACACATAAGATGCGACTAA [CACACA_site8662]”, the “gcPBM binding intensity (ln)” value is 9.51 ± 0.26.

Consider “GTTTGTAAATATTTTACACACATATATATATATATA [CACACA_site1075]”, for which the “gcPBM binding intensity (ln)” value is 9.23 ± 0.5.

On to “ATTATAGACACGCGCACACACAACAAAAAAAAAAAA [CACACA_site9180]”, for which the “gcPBM binding intensity (ln)” value was 8.47 ± 0.59.

Regarding “TTGGGGTATCTTCCTATGCACACTTGTTATGTACTA [CACACA_site831]”, the “gcPBM binding intensity (ln)” value was 9.11 ± 0.38.

As to “ATACTTTTAAATTGATGTACTTTATTTATAAGGTGA [XGTACX_site6746]”, the “gcPBM binding intensity (ln)” value turned out to be 7.7 ± 0.3.

As for “TTGATTACTAGAAATGCACACACTGATAAAATAAGG [CACACA_site4134]”, the “gcPBM binding intensity (ln)” value came to 8.95 ± 0.35.

For the sequence “TTGCTCACAAGAAGCACACAAAAAAAGAAAAAAAAA [CACACA_site4047]”, the “gcPBM binding intensity (ln)” value was 8.12 ± 0.57.

For the sequence AATATATATATTAGAGTGCACATAATTATTTGCTAA, the “gcPBM binding intensity (ln)” value is 9.95 ± 0.028.

As to “TATGTCAAATATATATGTACACAAATATACTATTAA [XGTACX_site2643]”, the “gcPBM binding intensity (ln)” value was determined as 7.62 ± 0.28.

Consider “ATAATCACAAATAATTGTACATTTTGTTATATATAT [XGTACX_site7704]”, for which the “gcPBM binding intensity (ln)” value turned out to be 8.13 ± 0.62.

For “AAAAATTTCATATTCACACACAAAAAAAAAAAATAT [CACACA_site1592]”, the “gcPBM binding intensity (ln)” value was 7.81 ± 0.68.

For “TGATATATATATATATATATAACACACGCAAAAAAA [TGCATGCA_negctrl_site240]”, the “gcPBM binding intensity (ln)” value was found to be 8.3 ± 0.81.

For TTTTTAATTTATTGTGTGCACACAACTATGAGTTTT, the “gcPBM binding intensity (ln)” value was 9.7 ± 0.31.

Take “ATATGATATATATTCGGTACACATATATATAAAGAG [XGTACX_site430]”: the “gcPBM binding intensity (ln)” value was 8.3 ± 0.42.

Consider “ATTTAAATAATATTCACACACAAAATTATATTTTAA [CACACA_site219]”, for which the “gcPBM binding intensity (ln)” value stood at 7.63 ± 0.47.

With “AAGTTTTCTTAAAATTGTACTTTTCAAAAATAATCT [XGTACX_site277]”, the “gcPBM binding intensity (ln)” value was 7.75 ± 0.4.

For “AAAACTTGTCAGAATGGACACACGAATTAAAGGCCT [CACACA_site1215]”, the “gcPBM binding intensity (ln)” value is 7.54 ± 0.86.

Turning to “TTATTTTTTATTATGTGTACATAACATCGCGATACA [XGTACX_site4359]”, the “gcPBM binding intensity (ln)” value worked out at 8.18 ± 0.59.

Consider “GATTTAGTTATTTAAACATGCAATTTATATAGAATT [TGCATGCA_site47]”, for which the “gcPBM binding intensity (ln)” value worked out at 7.82 ± 0.93.

Regarding “CAACATTCGTATATCACACATTTGCATGTTGTCAAT [CACACA_site4470]”, the “gcPBM binding intensity (ln)” value is 7.79 ± 0.66.

Regarding “TATTTATACATACATACACACATATAGATTTATATT [CACACA_site7851]”, the “gcPBM binding intensity (ln)” value amounted to 7.91 ± 0.41.

Turning to “TCGTATATGGATTTTGCACACAATTATAATTTAAAT [CACACA_site868]”, the “gcPBM binding intensity (ln)” value was 9.26 ± 0.3.

Turning to “TATCCCTTAGAATACACACCCATATGAGCGTGAACT [CACACA_site2951]”, the “gcPBM binding intensity (ln)” value is 7.58 ± 0.53.

Turning to “TATATATTTTAAAATAGTACATATTATATAACCCAT [XGTACX_site2194]”, the “gcPBM binding intensity (ln)” value is 8.03 ± 0.45.

Consider “ATATATATATATATATGTACACATTAATGTTTTTTT [XGTACX_site167]”, for which the “gcPBM binding intensity (ln)” value worked out at 9.53 ± 0.81.
